5 molecules from the supplement of paper PMC4604168 (melanoma cell lines) can be followed below.

This is one part of the list. Repeats are few or missing, and single values can be far off.
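Also: cell number obtained by counting DAPI-stained nuclei in high-throughput microscope images with image analysis software, screen run in 1,536-well plates.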

For this test, the system named is COLO792. In words: cell count relative to DMSO control; melanoma cells; higher = more viable cells. As to conditions: library dose: low library concentration; 72 h.
Take `N#CC[C@H](C1CCCC1)n1cc(-c2ncnc3[nH]ccc23)cn1` [ruxolitinib] + CCc1ccc(CCOc2ccc(CC3SC(=O)NC3=O)cc2)nc1 [pioglitazone] (first compound 1 µM, partner dose 2 µM): the cell count amounted to 99.7%.
With `N#CC[C@H](C1CCCC1)n1cc(-c2ncnc3[nH]ccc23)cn1` [ruxolitinib] + Cn1cc(/C=C2\C(=O)Nc3cccnc32)c2ccccc21 [GW441756] (first compound 1 µM, partner dose 0.4 µM), the cell count was determined as 116%.
In turn, `CC[C@]1(O)C[C@H]2CN(CCc3c([nH]c4ccccc34)[C@@](C(=O)OC)(c3cc4c(cc3OC)N(C=O)[C@H]3[C@@](O)(C(=O)OC)[C@H](OC(C)=O)[C@]5(CC)C=CCN6CC[C@]43[C@@H]65)C2)C1` [vincristine] + COc1cc2c(Oc3ccc4[nH]c(C)cc4c3F)ncnc2cc1OCCCN1CCCC1 [cediranib] (first compound 0.0001 µM, partner dose 0.4 µM) displayed a cell count of 85%.
`Cc1cc(Nc2cc(N3CCN(C)CC3)nc(Sc3ccc(NC(=O)C4CC4)cc3)n2)n[nH]1` [Tozasertib] + CC1(C)NC(=O)N(c2ccc([N+](=O)[O-])c(C(F)(F)F)c2)C1=O [nilutamide] (first compound 0.006 µM, partner dose 1 µM) showed a cell count of 92%.
In turn, `N#CC[C@H](C1CCCC1)n1cc(-c2ncnc3[nH]ccc23)cn1` [ruxolitinib] + COc1ccc(COc2ccc(Cc3cnc(N)nc3N)cc2OC)cc1 [GW2580] (first compound 1 µM, partner dose 1 µM) returned a cell count of 116%.
